# Source: PubChem BioAssay AID493208 (National Center for Advancing Translational Sciences (NCATS), 2011)
# Among all 44,000 compounds or so, about 340 (0.77%) were called active. Another 5% or so got no clear call; they are omitted. Calls come from the whole dose curve; as a rule, active = well fitted inhibition curve with a large enough effect; inconclusive = small, poorly fitted or top-dose-only effect; inactive = flat fitted curve, though single readings scatter. The list shows a part of the results.
# Test: Acumen qHTS Assay for Inhibitors of the mTORC1 Signaling Pathway in MEF (Tsc2-/-, p53-/-) Cells: Sytravon; note: nearly all actives have a fitted effect of over 50% in size;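 for activity change, negative = inhibition: plate controls were DMSO for no effect and rapamycin for full effect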
# Conditions: phospho-rpS6 immunofluorescence/PI, 24 h; series mostly up to 38.3 µM; activity change, negative = inhibition: at the top concentration
# Method in brief: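 Cell-based qHTS: Tsc2-/- p53-/- MEF, 24 h cpd, 37 °C; fix/perm, anti-phospho-S6 Alexa-488 + PI; Acumen 488 nm scan; pS6/PI ratio, % positive cells; rapamycin 7.5 nM = inhibition ref; PI count = viability.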
# Potency is the fitted concentration of half-maximal effect.
Structure (SMILES),"activity change, negative = inhibition",Potency
COc1cc(NS(=O)(=O)c2cc3[nH]c(=O)[nH]c3cc2C)cc(OC)c1OC,inactive: 2.27%,–
COc1ccc(-c2cc(C(=O)Nc3c(C)nn(Cc4ccccc4C)c3C)no2)cc1,inactive: -16%,–
Cc1ccc2c(c1)-c1c(cnc3cc(-c4ccc(Cl)cc4)nn13)CO2,inactive: 2.29%,–
Cc1ccc(CCNC(=O)c2sc3nc4n(c(=O)c3c2C)CCCC4)cc1,inactive: -2.91%,–
COc1ccccc1CNC(=O)c1ccc2c(c1)nc(C)n2-c1cccc(C)c1,inactive: 0.372%,–
CC(CNC(=O)c1cc2cc(S(=O)(=O)N3CCCCC3)ccc2n1C)c1ccccc1 (stereo not drawn),inactive: -2.57%,–
COc1ccc(NC(=O)C(C)N2Cc3ccccc3C2=O)cc1OC (stereo not drawn),inactive: -8.94%,–
Cc1ccc2c(c1)c(=O)c1ccccc1n2CCCC(=O)Nc1ccc(C)c(C)c1,inactive: 10.6%,–
Cc1ccc(COC(=O)c2[nH]c3c(c2C)C(=O)CC(c2ccc(Cl)cc2)C3)cc1 (stereo not drawn),inactive: 8.11%,–
CC(C)OC(=O)c1ccc(NC(=O)CSc2nc(-c3cccs3)cc(C(F)(F)F)n2)cc1,inactive: -3.24%,–
CC(C)CC(=O)n1nc(-c2ccco2)nc1NCc1ccc(Cl)cc1,inactive: 5.62%,–
CCOc1ccc(NC(=O)c2ccc3nc(C(C)C)oc3c2)cc1,inactive: 0.374%,–
CCc1cccc(NC(=O)Cn2nc(C)c3sc4ccccc4c3c2=O)c1,inactive: -14.6%,–
Cc1ccc(C)c(CN2C(=O)CSc3ccc(C(=O)NCc4ccccc4)cc32)c1,inactive: -8.84%,–
COc1ccc(Cn2c(=O)c3ccccc3n3c(-c4ccc(C)cc4)nnc23)cc1,inactive: 1.87%,–
COc1ccccc1OC(C)C(=O)N1CCC(c2nc3ccccc3s2)CC1 (stereo not drawn),inactive: 0%,–
Cc1ccc(OCc2cc(=O)n3cc(C)sc3n2)c(NC(=O)c2ccco2)c1,inactive: 7.7%,–
COc1ccc(NC(=O)c2cnc3sc(N4CCOCC4)nn3c2=O)c(OC)c1,inactive: 0.0235%,–
Cc1ccc(C)c(NC(=O)Cn2cc(S(=O)(=O)NC(C)C)c(S(=O)(=O)NC(C)C)c2)c1,inactive: -0.203%,–
COc1cc(C(=O)Nc2c(C(=O)Nc3ccccc3F)oc3ccccc23)cc(OC)c1OC,inactive: -8.38%,–
CCCn1c(NCc2ccccc2F)nc2ccccc21,inactive: -3.65%,–
O=C(Nc1cccc(NC(=O)c2ccc(Br)cc2)c1)c1ccccc1,inactive: -1.03%,–
CCC(=O)N1c2ccc(S(=O)(=O)CCC(=O)N3CCN(c4ccc(F)cc4)CC3)cc2CC1C (stereo not drawn),inactive: -1.23%,–
COc1ccc2c(c1)CC(NC(=O)Nc1ccc(Br)c(C)c1)CO2 (stereo not drawn),inactive: -6.98%,–
COc1ccc(-c2nnc(SCC(=O)Oc3cc(C)ccc3C)o2)cc1,inactive: 6.66%,–

Structure (SMILES),"activity change, negative = inhibition",Potency
O=C(NCc1cccc(F)c1)c1ccc2nc(CCc3ccccc3)oc2c1,inactive: 0.938%,–
CCOC(=O)c1cc2c(=O)n3ccccc3nc2n(CC2CCCO2)c1=NC(=O)c1ccc(F)cc1 (stereo not drawn),inactive: 0.488%,–
CCN(C(=O)c1cccn(Cc2cccc(Cl)c2)c1=O)c1ccccc1,inactive: 4.88%,–
CCCCCNC(=O)c1ccc2c(=O)n(CCc3ccccc3)c(=O)[nH]c2c1,inactive: 3.51%,–
CCOC(=O)N1CCc2c(sc(NCc3cccc(F)c3)c2C(=O)Nc2ccc(OCC)cc2)C1,inactive: 0.154%,–
COc1ccc(C(=O)Nc2nonc2-c2ccc(OC)c(OC)c2)cc1Cl,inactive: -29.4%,–
CCc1cc(C(=O)NCc2ccc(F)cc2)no1,inactive: 1.99%,–
CC(=O)c1ccc(S(=O)(=O)N2CCn3cccc3C2c2ccc(F)c(F)c2)cc1 (stereo not drawn),inactive: -2.39%,–
COc1ccc(CNc2ncnc3c2c(-c2ccccc2)cn3-c2cccc(C)c2)cc1,inactive: 11.5%,–
CC(C)Oc1ccc(CNC(=O)c2ccc3c(c2)N(C)C(=O)C2CCCCN32)cc1 (stereo not drawn),inactive: 1.18%,–
Cc1ccc(N2CC(NC(=O)C3CCCC3)CC2=O)cc1C (stereo not drawn),inactive: -0.158%,–
COc1cccc(NC(=O)C2CCN(S(=O)(=O)c3c(C)noc3/C=C/c3cccs3)CC2)c1,inactive: -8.87%,–
O=C(COc1ccccc1Cl)Nc1nc(-c2ccc(F)cc2)ns1,inactive: -0.919%,–
CCN1CCN(c2cc(C)c3cc(NC(=O)/C=C/c4ccc(OCCC(C)C)cc4)ccc3n2)CC1,–,active: 4.14 µM
CCc1nnc(SCc2nc(-c3cccc(C)c3)oc2C)c2cc3sc(C)cc3n12,inactive: -0.834%,–
COc1ccc(C(=O)Nc2cc(NC(=O)c3ccco3)ccc2OC)cc1Cl,inactive: 1.16%,–
Cc1ccc(NC(=O)CSc2nc(C3CCCC3)nc3c2c(=O)n(C)c(=O)n3C)c(C)c1,inactive: -1.41%,–
CCOC(=O)c1c(-c2ccccc2)oc2cc(Br)c(OCc3ccccc3)cc12,inactive: 4.41%,–
Cc1ccc(OCCCCn2nnc3sc4c(c3c2=O)CCC(C)C4)cc1 (stereo not drawn),inactive: 0.525%,–
CCn1c(=N)c(C(=O)NC2CCCC2)cc2c(=O)n3cc(C)ccc3nc21,inactive: 0.137%,–
CCOc1ccc(C(=O)NCCc2csc(-c3cccnc3)n2)cc1,inactive: -10.9%,–
Cc1ccc(NC(=O)C2CCCN(S(=O)(=O)c3cccc4nsnc34)C2)c(C)c1 (stereo not drawn),inactive: 2.81%,–
O=C(Cn1c(=O)n(-c2ccc(F)c(Cl)c2)c(=O)c2sc3ccccc3c21)NC1CCCCC1,inactive: -0.281%,–
Cc1ccc(Cl)cc1Nc1nn2c(=O)c3ccc(C(=O)NC4CCC(C)CC4)cc3nc2s1 (stereo not drawn),inactive: 1.55%,–
CCNC(=O)C1CCCN(c2nn3cc(-c4ccc(C)cc4)nc3s2)C1 (stereo not drawn),inactive: 4.19%,–

Structure (SMILES),"activity change, negative = inhibition",Potency
CC(C)c1ccc(CNCCSc2nnnn2-c2ccccc2)cc1,inactive: -6.5%,–
CCC(C)S(=O)(=O)c1oc(-c2ccc(F)cc2)nc1S(=O)(=O)c1ccc(F)cc1 (stereo not drawn),–,active: 0.826 µM
CCOc1ccc(-n2nc3ccc(NC(=O)COc4ccccc4)cc3n2)cc1,inactive: 3.05%,–
Cc1cc(C)cc(NC(=O)C2CCN(c3nc4ccccc4nc3C(F)(F)F)CC2)c1,inactive: 2.54%,–
Cc1cccc(N2CCN(C(=O)Cc3c(C(=O)O)c(C)cn3C)CC2C)c1 (stereo not drawn),inactive: -3.12%,–
CN(Cc1ccccc1)C(=O)c1ccc(CSc2nc3cccnc3n2Cc2ccccc2)cc1,inactive: -7.72%,–
COc1ccccc1CCNC(=O)C1(c2cccs2)CCOCC1,inactive: -4.71%,–
CCc1cccc(NC(=O)CCn2nc(C)cc2C)c1,inactive: -5.55%,–
COC(=O)c1c(NC(=O)COc2ccc(C(C)C)cc2)sc2c1CCCC2,inactive: -1.42%,–
COc1ccc(C2CC(=O)Nc3c2c(C)nn3-c2nc(C)cc(C)n2)c(OC)c1OC (stereo not drawn),inactive: -8.62%,–
CCC(=O)NCCc1sc2nc(-c3ccc(OC)cc3)nn2c1C,inactive: -0.0671%,–
COc1ccc(CCNC(=O)c2ccc3nc(CCc4ccccc4)oc3c2)cc1OC,inactive: 4.17%,–
COc1ccc(NC(=O)Cn2c(=O)oc3cc(S(=O)(=O)N4CCCC4)ccc32)cc1OC,inactive: 0.985%,–
CCCS(=O)(=O)Nc1cccc(-c2cn3ccsc3n2)c1,inactive: 0%,–
Cc1cccc(CSc2nc3ccncc3n2CC(=O)N(C)C2CCCCC2)c1,inactive: -3.92%,–
COc1ccc(NC(=O)Cn2cnc3c(nc4n3CCCCC4)c2=O)cc1Cl,inactive: 1.91%,–
Cc1ccc(N2C(=O)CSC23C(=O)N(CC(=O)NCCc2ccccc2)c2ccccc23)cc1 (stereo not drawn),inactive: -7.4%,–
CCC1CN(C(=O)N2CCC(C(=O)NCc3cccs3)CC2)c2ccccc2O1 (stereo not drawn),inactive: 11.4%,–
CC(=O)c1ccc(NC(=O)c2sc(-n3nc(C)c(Cc4ccc5c(c4)OCO5)c3C)nc2C)cc1,inactive: -5.02%,–
COc1cccc(CNCc2c(C(=O)O)n(Cc3ccc(C)cc3)c3cc(C)ccc23)c1OC,inactive: -0.504%,–
O=c1oc2c(CN3CCOCC3)c(O)ccc2cc1-c1ccccc1,inactive: 0.542%,–
COc1ccc(N2CCN(C(=O)c3noc4c3CCCCC4)CC2)cc1,inactive: 0.786%,–
CCOC(=O)c1ccccc1NC(=O)c1sc2nc(-c3ccc(F)cc3)cn2c1C,inactive: 2.41%,–
O=C(NCCc1nc2ccccc2n1Cc1ccc(Cl)cc1)c1ccccc1,inactive: -10.9%,–
COc1ccc(-c2nc3ccccc3o2)cc1NC(=O)c1cc(Br)ccc1OC,inactive: -1.81%,–

Structure (SMILES),"activity change, negative = inhibition",Potency
COc1ccc(C)cc1NC(=O)NCCn1nnc2cc(S(=O)(=O)N(C)C)ccc21,inactive: 10.3%,–
Cc1nnc(NC(=O)CSc2nc3c([nH]c4ccccc43)c(=O)n2-c2cccc(Cl)c2)s1,inactive: 0.054%,–
COc1ccc(CCNC(=O)c2cnc3sc(N4CCCCCC4)nn3c2=O)cc1,inactive: -4.99%,–
Cc1ccc(C(=O)OCc2cc(=O)n3nc(CC(C)C)sc3n2)cc1,inactive: 0%,–
Cc1ccc2occ(CC(=O)Nc3c(C)cccc3C)c2c1,inactive: -1.29%,–
CCCN(C(=O)c1ccc2c(=O)n3c(nc2c1)CCCCC3)c1cccc(Cl)c1,inactive: 0.475%,–
COc1ccc(OCC(=O)N2CCN(C(=O)c3ccc(OC)c(OC)c3)CC2)cc1,inactive: 6.36%,–
Cc1cccc(C)c1NC(=O)CCSCCc1ccccn1,inactive: -13.1%,–
COc1cn(CC(=O)Nc2ccc(C)cc2)c(CN2CCCCC2)cc1=O,inactive: -0.868%,–
O=C(CCNS(=O)(=O)c1ccc2c(c1)CCN2C(=O)C1CC1)Nc1ccc(Cl)cc1,inactive: -0.608%,–
COc1ccccc1CN1CCC(CNC(=O)c2cnn(-c3cccc(Cl)c3)c2C2CCN(C(=O)OC(C)(C)C)CC2)CC1,inactive: -6.53%,–
Cc1c(NS(=O)(=O)c2ccc(C(C)(C)C)cc2)c(=O)n(-c2ccccc2)n1C,inactive: 4.47%,–
Cc1cccc(NC(=O)CN2C(=O)C(c3ccc(F)cc3)=NC23CCCCCC3)c1C,inactive: -6.23%,–
Cc1cc2c(cc1S(=O)(=O)NCc1ccc(F)cc1)OCC(=O)N2,inactive: 11.4%,–
COc1ccc(NC(=O)CN2C(=O)COc3ccc(S(=O)(=O)NC4CCCC4)cc32)cc1OC,inactive: 1.58%,–
Cc1ccc(-n2ncc3c(NC4CCCCC4)ncnc32)cc1C,inactive: 10.2%,–
O=C(c1ccccc1)n1nc(-c2ccc(Cl)cc2)nc1NCc1ccco1,inactive: -16.1%,–
CCOC(=O)c1cc2c(=O)n3ccccc3nc2n(CCOC)c1=NC(=O)c1c(-c2c(F)cccc2Cl)noc1C,inactive: -20.5%,–
CSc1ccc(CCNC(=O)Cn2ncc3c([nH]c4ccccc43)c2=O)cc1,inactive: -9.04%,–
COc1ccccc1C(=O)NC(=O)Nc1ccc(-c2cc(C(F)(F)F)nn2-c2ccccc2)cc1,inactive: -2.29%,–
CCc1ccc(N(CC)C(=O)c2cn(C)c(=O)c3cc(OC)c(OC)cc23)cc1,inactive: 12.8%,–
CCOc1ccc2c(c1)NC(c1ccc(OCC)c(OCC)c1)=NC(c1ccc(F)cc1)=N2,inactive: -0.734%,–
CCN(CC)c1ccc(NC(=O)C2CCN(S(=O)(=O)c3c(C)noc3/C=C/c3ccccc3F)CC2)c(C)c1,inactive: 0.256%,–
